Reference: the supplement of paper PMC3334620
Over roughly 33,000 sequences, “E-score (-0.5 to 0.5)” has its median near -0.04; the highest 2% begin near 0.36. This is one part of the list.

The sequences below were run against T1, Hmlalpha2 (UniProt P0CY09) (assay: PBM E-score (8-mer binding enrichment) (E-score (-0.5 to 0.5)); higher = stronger / more preferred TF binding; most listed sequences are background and not binding sites). Conditions: protein concentration: 200 nM; construct: GST-full length.
T1 sequence: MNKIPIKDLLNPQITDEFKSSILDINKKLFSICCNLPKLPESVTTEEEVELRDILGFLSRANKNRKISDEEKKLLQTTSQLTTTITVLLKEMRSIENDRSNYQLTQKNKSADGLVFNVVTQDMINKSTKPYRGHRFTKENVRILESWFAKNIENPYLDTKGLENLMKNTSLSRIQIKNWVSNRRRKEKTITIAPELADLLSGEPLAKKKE
Protocol: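 Universal 'all 10-mer' protein binding microarrays (Agilent AMADID 015681) probed with GST-tagged S. cerevisiae TFs (full-length or DBD) made by in vitro transcription/translation (PURExpress), about 100-200 nM. Bound TF was detected with fluorescent anti-GST. Each ungapped 8-mer (which stands for itself and its reverse complement) is scored by the PBM enrichment score (E-score), a modified Wilcoxon-Mann-Whitney statistic from -0.5 to +0.5, computed with the Universal PBM Analysis Suite. Scale: above 0.35 generally sequence-specific binding.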

Sequence	PBM E-score
GAATTAGC	-0.0766
AACACACA	0.391
TGCGCAAA	-0.00936
AGAAGTAC	0.00966
AAAGTAAT	0.238
GAGATCAC	-0.0612
GCGGTACC	-0.216
GTCGTGAA	0.00154
TGCCAGCA	-0.0451
CAGACCAA	-0.136
ACCTCCGC	-0.301
CAAGGTTA	0.128
AATAATTG	-0.0941
CAAGCACA	-0.0304
CTTGTTCA	0.249
ATAACGAA	0.124
AAAGTATA	0.114
ACAGTGGG	-0.164
CCGTACGG	-0.131
AACGGCGG	-0.209
CAACAGGG	0.0131
AGCGACCG	-0.201
AGAATAAA	0.0755
ACAGAGTG	0.122
AGGGACAT	-0.0233

Sequence	PBM E-score
GACGGCTA	-0.146
GTGCCTAA	0.0283
AATGATAT	0.0696
TAAGAATA	0.23
ATGCGTCG	0.0276
CATGCCCG	0.0552
GCAAAATA	0.106
GCAATAGC	0.0141
GGTCGACC	-0.0813
CTTCTTCA	-0.0104
ATCAGTAA	0.223
CGCAATGA	0.0708
CATCATAA	0.0908
AACGGCCC	-0.296
CCGTGGTA	0.0442
CTAATGAC	-0.046
CCAGAAAA	0.0245
CAGTAAAA	0.134
ATCGTGAA	-0.136
ACGGTATC	-0.0605
CCGATAGA	-0.186
CCTTTAGA	-0.0999
CAACAACG	0.239
GAAGTCAC	-0.229
ATTGTGCA	0.0508

Sequence	PBM E-score
CTCTCAAG	-0.211
CTCCCCCC	-0.418
TATTTACA	0.463
ATCGACTG	-0.247
AGCTCTTC	-0.21
CCTTGTAG	0.195
ATTCGGAG	0.00943
GGGCCCGA	-0.109
CATAATGA	0.0808
CGATGGTC	-0.175
CAGCAACA	0.234
ATCAATCG	0.0955
CCGGGCAC	-0.209
AGGCACCC	-0.134
AAGGCAGC	-0.148
ACATATTG	0.142
CACCCGGG	-0.278
CCAGAAAG	0.0306
AGGTGATA	-0.161
AGCTTAGA	-0.0544
CGTCAACA	0.297
CAAGAGTG	-0.0803
AGCTTACT	0.0336
TACGAAGA	0.0849
CATATGCA	0.1

Sequence	PBM E-score
CCTGCTTC	-0.214
GTGCAAAC	0.157
GGAAGGCC	-0.3
ACCCAAAG	-0.129
GTGTAGCA	0.157
CGGGAGCC	-0.33
CCTGTCCG	-0.0633
ATTCGTTG	0.0986
GATGGGAC	-0.282
GATGTAAC	0.215
ATGGTCTG	-0.0122
CATTCGAA	0.0371
GCTTAATA	-0.0703
ATGCCGTC	-0.00421
TCACTCAA	-0.0849
AAACGGGC	-0.0907
GCTTACCC	-0.233
AAGTATGC	0.0617
ATATTTCG	0.178
CAACTCCG	-0.171
AGCTAAGC	-0.142
CTCTTGCC	-0.055
AACGTAGA	0.258
ATCCGCAA	0.00285
AAAGCTCC	-0.153

Sequence	PBM E-score
AACACTCC	0.102
CTCCGACC	-0.354
ACCCGCTG	-0.0671
CCCCGGCG	-0.285
AACGGGTG	0.0789
GAATGAAA	-0.0312
CTTATAAG	-0.279
CGGTGTCA	-0.0723
ACTAGATG	0.0374
CCTGCCAC	-0.232
TCCGACAA	0.0659
TCAAAACA	0.308
CTTTTCGC	0.111
ATGCTCTA	-0.011
AATTTGTC	0.0589
CGGGTGAG	-0.247
TATAAGAA	0.0871
CGAGAACA	0.0369
GATATGCC	-0.287
CCGCACCA	-0.158
GGAAGCCA	-0.349
CCGTGGTC	-0.243
CAGATAGA	-0.0232
CCGAGCAA	-0.158
CGTAGTGC	-0.15

Sequence	PBM E-score
CCGAAACG	-0.082
CCAAGAGC	-0.225
ATAGGCTC	-0.186
CCGGGAGA	-0.167
CCCCAGTA	-0.182
CAATTTAC	0.286
GTCTTAAC	0.338
AGTGATCC	-0.0197
CGAAGAAA	-0.0904
TAAACTAA	0.246
GCCCACGC	-0.193
ACGGGTGA	-0.0736
CGTCTTCA	-0.0198
CATAATTC	0.0206
AAATGTAC	0.236
ACGAGTCA	-0.0236
ACACTATC	-0.0132
GACGACTA	-0.161
TCACACCA	-0.0124
CAGAATGC	-0.193
CCTCTCCA	-0.196
AGCCGGTC	-0.192
GATCCACA	0.0446
TGCCGGAA	0.0244
AAATTCCG	-0.0172

Sequence	PBM E-score
GCTGTTTA	0.173
GCCCATTA	0.0322
ATCTCGGC	-0.264
GACAAACC	-0.0548
CAAAAAAC	0.217
ACAATAAG	0.112
CCAGAGAA	-0.174
GCAACTGC	0.0943
ACTTGGGG	-0.282
AATGCCCA	0.0243
CGTTCCAG	-0.188
TACAGAGA	0.0691
GGGAAGCA	-0.183
ACACTGGC	0.115
CGCCAGCC	-0.237
CGGCGGAC	-0.22
ACGCCCCA	-0.0187
CTTCTTGC	-0.106
GTGCTTCA	0.0527
CGCGGCCG	-0.167
CCTTCTAC	0.136
AAGACAAT	0.0291
